Consider three molecules from patent publication US5159002A, “Method for purifying dermostatin A and dermostatin B” (Xechem Inc., priority 1990, dated 1992).

The experiment deals with reverse transcriptase. The experiment is described as follows: microbe, parasite or virus in culture. It counts as cell-based, HIV. As to conditions: for % Viral Activity, RT: Table IV, added with HIV, 4 days.
[1] abbreviates: Human immunodeficiency virus 1, H9, 96 h, read-out: % Viral Activity, RT.

On to `C[C@@H]1[C@H](O)[C@@H](C)/C=C/C=C/CC/C=C/C=C/C=C/C=C/[C@H](O[C@@H]2O[C@H](C)[C@@H](O)[C@H](N)[C@@H]2O)C[C@@H]2O[C@](O)(C[C@@H](O)C[C@@H](O)[C@H](O)CC[C@@H](O)C[C@@H](O)CC(=O)O[C@H]1C)C[C@H](O)[C@H]2C(=O)O` [Amphotericin A], for which the “% Viral Activity, RT” value by setting is: (conc. 0.01 (g/ml as printed)) 84%; (conc. 0.1 (g/ml as printed)) 92%; (conc. 10 (g/ml as printed)) 55%.
Consider `C[C@@H]1[C@H](O)[C@@H](C)/C=C/C=C/C=C/C=C/C=C/C=C/C=C/[C@H](O[C@@H]2O[C@H](C)[C@@H](O)[C@H](N)[C@@H]2O)C[C@@H]2O[C@](O)(C[C@@H](O)C[C@@H](O)[C@H](O)CC[C@@H](O)C[C@@H](O)CC(=O)O[C@H]1C)C[C@H](O)[C@H]2C(=O)O` [Amphotericin B], for which, under setting [1], the activity at 0.01 µg/mL was 100%, the activity at 0.1 µg/mL amounted to 100%, the activity at 1 µg/mL worked out at 48% and the activity at 10 µg/mL was determined as 40%.
Regarding `C[C@@H]1[C@H](O)[C@@H](C)/C=C/C=C/CC/C=C/C=C/C=C/C=C/C(O[C@H]2O[C@H](C)[C@@H](O)[C@H](N)[C@@H]2O)CC2O[C@](O)(CC(O)C(O)CCC(O)CC(O)CC(O)CC(=O)O[C@H]1C)CC(O)C2C(=O)O` (some centres unmarked) [Nystatin], the “% Viral Activity, RT” value reads like this: (conc. 0.01 (g/ml as printed)) 87%; (conc. 0.1 (g/ml as printed)) 86%; (conc. 1.0 (g/ml as printed)) 84%; (conc. 10 (g/ml as printed)) 47%.
